Measurements: PubChem BioAssay AID2676 (National Center for Advancing Translational Sciences (NCATS), 2010)
Where “and” joins values, the source holds several entries; their conditions need not be identical. Identical values can stand only once. The whole screen tested about 370,000 compounds, of which about 1,100 (0.3%) were called active. This list was built around the results that the source calls inconclusive (neither active nor inactive); the mix of calls is not that of the screen. Calls follow the shape of the dose curve; as a rule, active = well fitted activation curve with a large enough effect; inconclusive = small, poorly fitted or top-dose-only effect; inactive = flat fitted curve, though single readings scatter. Where the call is inconclusive, the potency comes from a doubtful curve fit.

target: Relaxin receptor 1 (Homo sapiens) (UniProt Q9HBX9); assay: qHTS Assay for Agonists of the Relaxin Receptor RXFP1; settings: HEK293T-RXFP1 cAMP TR-FRET, 30 min; series mostly up to 57.5 µM; also: nearly all actives have a fitted effect of over 60% in size
Outline: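 cAMP rise read by TR-FRET after 30 min, 37C compound exposure (up to 58 uM) in RXFP1-transfected HEK293 cells with Ro 20174 present. EC50 from Hill-equation fits, with 29 nM porcine relaxin as 100% and buffer as basal.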
Potency is read from the fitted curve at half-maximal effect; tags tell the direction and shape of the fitted curve.

Chain of UniProt Q9HBX9 (Q9HBX9 whole entry, looked up): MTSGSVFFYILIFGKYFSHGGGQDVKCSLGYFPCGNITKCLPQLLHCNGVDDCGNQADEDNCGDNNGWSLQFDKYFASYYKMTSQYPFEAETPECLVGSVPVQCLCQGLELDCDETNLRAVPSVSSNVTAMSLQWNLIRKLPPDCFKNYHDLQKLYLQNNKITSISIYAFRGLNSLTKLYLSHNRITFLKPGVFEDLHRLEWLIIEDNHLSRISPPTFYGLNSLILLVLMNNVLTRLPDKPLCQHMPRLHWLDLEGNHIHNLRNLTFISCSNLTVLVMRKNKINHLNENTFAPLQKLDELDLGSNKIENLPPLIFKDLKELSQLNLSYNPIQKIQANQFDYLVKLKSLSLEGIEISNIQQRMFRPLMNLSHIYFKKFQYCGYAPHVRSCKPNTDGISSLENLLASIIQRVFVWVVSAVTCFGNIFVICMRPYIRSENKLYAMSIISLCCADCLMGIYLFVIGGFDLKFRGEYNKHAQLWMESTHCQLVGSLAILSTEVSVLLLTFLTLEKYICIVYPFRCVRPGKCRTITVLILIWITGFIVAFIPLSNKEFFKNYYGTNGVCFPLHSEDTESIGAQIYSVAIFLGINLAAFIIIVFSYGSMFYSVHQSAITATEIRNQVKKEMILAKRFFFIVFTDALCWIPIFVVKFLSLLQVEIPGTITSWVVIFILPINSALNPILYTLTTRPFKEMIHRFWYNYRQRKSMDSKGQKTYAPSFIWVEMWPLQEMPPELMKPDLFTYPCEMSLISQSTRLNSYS

Potency, inactive:
O=C(CNC(=O)c1ccc(Cl)c([N+](=O)[O-])c1)OCN1C(=O)c2ccccc2C1=O
O=C(NCCCCc1ccccc1)c1nn(-c2ccccc2)nc1CO
CCCCNC(=O)Cn1cnc2ccc(S(=O)(=O)N3CCC(C)CC3)cc2c1=O
COC(=O)c1c(NC(=S)Nc2ccccc2Cl)sc(C)c1C
CCCn1c2ccccc2c2cnn(CC(=O)NC3CCCCC3)c(=O)c21
Cc1nc(Cl)sc1C(=O)Nc1ccc(Cl)cc1
C/C(=N\Nc1nc2ccccc2[nH]1)c1ccc2c(c1)OCO2
O=C1Cc2ccccc2N1c1ccccc1
Cc1cc2c(c(=O)o1)C(C(C)C)C(C#N)=C(N)O2 (stereo unspecified)
Cc1cc(C2=NNC(=NC3CC3)SC2)c(C)n1-c1ccccc1F
O=C(CN(CC1CCCO1)C(=O)CNS(=O)(=O)c1ccc(Cl)cc1)NC1CCCCC1 (stereo unspecified)
COCCCNC(=O)c1cc2cc(S(=O)(=O)N3CCCCC3)ccc2n1C

Potency, active:
Cc1ccc(CNC(=O)CSc2ncc3c(n2)-c2ccc(Cl)cc2N(Cc2ccccc2)S3(=O)=O)cc1 28.2 µM
CCCn1c(/C=C/c2cc[n+](C)cc2)nc2ccccc21 20 µM
O=C(O)CCSc1ccc2ccccc2n1 14.1 µM and 17.8 µM
Cc1ccc(-c2ccc3nnc(SCC(=O)NCC4CCCO4)n3n2)cc1 (stereo unspecified) 25.1 µM
CCSc1nnc(-c2ccccc2SC)o1 22.4 µM
N/C(=N\OC(=O)COc1ccc2ccccc2c1Br)c1ccccn1 15.8 µM

Potency, inconclusive:
Cc1nnc(NC(=O)CCn2cnc3ccccc3c2=O)s1 20 µM [activator, partial curve]
CC(=O)c1ccc(N2CCN(C(=O)CCc3nnc4n(C)c(=O)c5sccc5n34)CC2)cc1 28.2 µM [activator, partial curve]
Cc1ccc(CNC(=O)CCCc2nnc3n(C)c(=O)c4sccc4n23)cc1 3.98 µM [activator, full curve]
CCCCN(CCCNC(=O)c1cc(Nc2ccc(OC)cc2)nc2ccccc12)Cc1ccccc1 39.8 µM [activator, single point]
CN(C)CCN(Cc1ccccc1)C(=O)C1CCN(c2ncnc3c2nc2n3CCCCC2)CC1 28.2 µM [activator, partial curve]
O=C(c1ccc(C(F)(F)F)cc1)C1CCCN(Cc2cccn2-c2ncccn2)C1 (stereo unspecified) 25.1 µM [activator, partial curve]
CCOc1cccc(NC(=O)c2sc3nc(-c4ccc(F)cc4)ccc3c2N)c1 22.4 µM [activator, partial curve]
Cc1ccc(-c2cc(C(F)(F)F)c(C#N)c(SCC(=O)Nc3ccccc3F)n2)cc1 25.1 µM [activator, partial curve]
O=C(Cn1c(=O)n(-c2ccccc2)c(=O)c2sc3ccccc3c21)NC1CCCC1 35.5 µM [activator, single point]
COc1ccc(-c2nc3cc(NC(=O)c4cc5ccccc5o4)ccc3o2)cc1 11.2 µM [activator, partial curve]
Cc1cccc(OCC(=O)Nc2ccccc2OCc2cc(=O)n3cc(C)ccc3n2)c1 39.8 µM [activator, single point]
Cc1cc(-c2nc3ncccc3o2)ccc1NC(=O)c1ccc(Cl)cc1 3.98 µM [activator, single point]
Cc1cccc(C(=O)Nc2ccccc2C(=O)OCc2cc(=O)n3nc(C4CC4)sc3n2)c1 28.2 µM [activator, single point]
CCN(c1ccc(C)cc1C)S(=O)(=O)c1nnc(NC(=O)c2ccccc2OC)s1 39.8 µM [activator, single point]
O=C(CCc1nnc2n(Cc3ccc(Cl)cc3)c(=O)c3ccccc3n12)NCCCN1CCOCC1 35.5 µM [activator, single point]
CCOC(=O)C1CCCN(C(=O)c2[nH]c3ccccc3c2Sc2ccc(Cl)cc2)C1 (stereo unspecified) 20 µM [activator, partial curve]
Cc1ccnc(NS(=O)(=O)c2ccc(NC(=O)c3nc(SC(C)C)ncc3Cl)cc2)n1 20 µM [activator, partial curve]
O=C(COC(=O)c1cc(Br)ccc1O)Nc1cccnc1Cl 35.5 µM [activator, single point]
Cc1cccc(-c2nc3ccccc3n3c(-c4ccccc4)c4c(=O)n(C)c(=O)n(C)c4c23)c1 31.6 µM [activator, single point]
S=c1nc[nH]c2c1sc1nc(N3CCOCC3)c3c(c12)CCCC3 25.1 µM [activator, partial curve]
CNC(=O)C1CCN(c2nc3ccccc3nc2C(F)(F)F)CC1 12.6 µM [activator, partial curve]
CCOC(=O)C1CCN(C(=O)c2cc3c(=O)n4cccc(C)c4nc3s2)CC1 22.4 µM [activator, partial curve]
COc1ccc(CCNC(=O)Cn2cc(C(=O)c3ccc(F)cc3)c(=O)c3ccc(C)nc32)cc1OC 39.8 µM [activator, single point]
COC(=O)c1c(NC(C)=O)sc(C(=O)Nc2ccccc2OC)c1C 28.2 µM [activator, single point]
Cc1ccc(-c2cc(C(=O)NCCN3CCOCC3)c3ccccc3n2)o1 20 µM [activator, partial curve]
O=C(Nc1ccccc1C(=O)OCc1cc(=O)n2c3c(sc2n1)CCCC3)c1cccc(Cl)c1 35.5 µM [activator, single point]
COc1ccc(-c2cc(C(F)(F)F)nc(SCC(=O)Nc3cc(C)on3)n2)cc1 31.6 µM [activator, single point]
N#Cc1ccccc1NS(=O)(=O)c1cc2c3c(c1)CCN3C(=O)CC2 25.1 µM [activator, partial curve]
CCN(CC)S(=O)(=O)c1ccc(N2CCOCC2)c(NC(=O)COc2ccc(C#N)cc2)c1 15.8 µM [activator, partial curve]
O=C(Cn1c2ncccc2c(=O)n1-c1ccccc1)Nc1ccc(F)c(F)c1 25.1 µM [activator, single point]
Cc1cc(-n2c(SCC(=O)Nc3ccc(F)c(F)c3)nc3n[nH]c(C)c3c2=N)ccc1Cl 35.5 µM [activator, single point]
O=C(CSc1nccn1Cc1ccc(Cl)cc1)Nc1ccc2c(c1)OCCO2 22.4 µM [activator, single point]
Nc1c(C(=O)Nc2ccc(C(=O)O)cc2)sc2nc3c(cc12)CCCC3 35.5 µM [activator, partial curve]
COc1ccc(S(=O)(=O)Nc2ccccn2)cc1C(=O)Nc1ccccc1 39.8 µM [activator, single point]
Cc1nc2cccnc2n1-c1cccc(C(=O)NCCc2ccc(S(N)(=O)=O)cc2)c1 25.1 µM [activator, partial curve]
CC1Cc2cc(/C(O)=C3/C(=O)C(=O)N(CCCn4ccnc4)C3c3ccc(Br)cc3)ccc2O1 (stereo unspecified) 15.8 µM [activator, partial curve]
CCOc1ccc(-c2nnc(SCC(=O)c3ccc(Br)cc3)n2-c2ccccc2)cc1 3.55 µM [activator, single point]
CC1CCCCN1C(=O)c1cc2c(=O)n3ccccc3nc2s1 (stereo unspecified) 25.1 µM [activator, partial curve]
Brc1ccc(-c2nc3ccccc3s2)s1 15.8 µM [activator, partial curve]
COc1ccc(C)c2sc(=NC(=O)c3cccc(N4C(=O)CCC4=O)c3)n(C)c12 39.8 µM [activator, single point]
CC(C)NC(=O)C1CCC(Cn2c(=O)c3sccc3n(Cc3ccc(F)cc3)c2=O)CC1 (stereo unspecified) 35.5 µM [activator, single point]
Brc1cccc(-c2nnn3c2nc(NCc2ccc4c(c2)OCO4)c2ccccc23)c1 39.8 µM [activator, single point]
Cc1ccc(C(=O)C2=C(O)C(=O)N(Cc3ccco3)C2c2cccc(Cl)c2)o1 (stereo unspecified) 28.2 µM [activator, partial curve]
Cc1ccc(NC(=O)CSc2nnc3ccc4ccccc4n23)cc1 28.2 µM [activator, partial curve]
O=C(CSc1nc(-c2ccccc2)nc2ccccc12)Nc1cccc(C(=O)O)c1 28.2 µM [activator, partial curve]
Cc1cccc(NC(=O)c2ccc(-c3ccccc3)s2)c1 31.6 µM [activator, single point]
COc1cccc(CNC(=O)c2cnc3sc(N4CCCC4)nn3c2=O)c1OC 39.8 µM [activator, single point]
COc1ccc(Cl)cc1NC(=O)c1cc2c(=O)n3ccccc3nc2s1 28.2 µM [activator, partial curve]
